Measured values: PubChem BioAssay AID1347073 (National Center for Advancing Translational Sciences (NCATS), 2019)
Hit rate of the full screen: of about 45,000 compounds, about 200 (0.44%) were called active. About 7% were inconclusive and are not listed. The call rests on the fitted dose curve; in most records, active means well fitted activation curve with a large enough effect; inconclusive means small, poorly fitted or top-dose-only effect; inactive means no such curve, though single readings can be large or run the other way. Some of the results follow.

Test: qHTS of TDP-43 Inhibitors: NCGC Sytravon Library Screen; further: 0% is about no effect; nearly all actives have a fitted effect of over 55% in size
Details: yeast TDP-43 toxicity rescue, BacTiter-Glo growth, 24 h; series mostly up to 46.1 µM; growth rescue (activation): at the top concentration
Procedure, shortened: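 TDP-43-expressing yeast, pregrown in raffinose, seeded at OD600 0.02 in galactose medium with compound for 24 hr at 30 deg C. Growth read by BacTiter-Glo luminescence, so rescue of toxicity appears as activation.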

| Structure (SMILES) | growth rescue (activation) |
| --- | --- |
| CCN(CC)CCCNC(=O)c1cc(Cl)c(NC(=O)C2=C(C)OCCS2)cc1OC | inactive: 3.21% |
| CCCCNC(=O)c1[nH]c(C)c(C(C)=O)c1C | inactive: 5.07% |
| CC(=O)c1cccc(NC(=O)CCn2c(=O)oc3ccccc32)c1 | inactive: -0.694% |
| Cc1cc(C)cc(-c2nnc(SCc3ccc(C(=O)O)cc3)o2)c1 | inactive: 3.45% |
| COc1cc(OC)c(N(C)S(=O)(=O)c2cccc(C(=O)NC3=NCCS3)c2)cc1Cl | inactive: 28.5% |
| CC(=O)c1ccc(O)c(CO)c1 | inactive: -32.4% |
| Cc1[nH]c(=S)sc1Cc1ccc(F)cc1 | inactive: 29.3% |
| COc1ccc(NC(=O)c2ccc(NCC3CCCO3)c([N+](=O)[O-])c2)cc1 (stereo not drawn) | inactive: -10.9% |
| CC1=NOC(=O)/C1=C\c1ccc(-c2ccc(Cl)c(C(=O)O)c2)o1 | inactive: -0.794% |
| N#Cc1cccc(NC(=O)CSc2nnc(-c3n[nH]c4ccccc34)o2)c1 | inactive: 3.6% |
| CCOC(=O)C1(CCOc2ccccc2)CCN(Cc2ccc(COC)o2)CC1 | inactive: -0.214% |
| COc1ccccc1N1CCN(C(=O)c2ccc3c(c2)N(Cc2cc(C)ccc2C)C(=O)c2ccccc2S3(=O)=O)CC1 | inactive: 14.1% |
| O=C(NCCc1ccccc1)c1cc(=O)c2ccccc2o1 | inactive: 26.8% |
| NC(=O)c1ccc(-n2c(CCC(=O)O)ccc2-c2cccs2)cc1 | inactive: 14.8% |
| COc1ccc(OCCC(=O)NC2CCCCC2)cc1 | inactive: 13.8% |
| C=CCn1c(SCC(=O)N2CCOCC2)nc(O)c(Cc2ccccc2)c1=O | inactive: 1.22% |
| FC(F)(F)c1ccccc1NC(=S)N1CCc2ccccc2C1 | inactive: 40.1% |
| CCn1nc(CC(=O)Nc2nnc(CC(=O)N3CCCCC3)s2)c2ccccc2c1=O | inactive: 32.9% |
| CCN(CC)C(=O)CNc1ccc(C(F)(F)F)cc1[N+](=O)[O-] | inactive: 19.1% |
| CC(/C=N\NC(=O)Cn1c(C)nc2ccccc21)=C\c1ccccc1 | inactive: 1.08% |
| COC(=O)c1ccc(COC(=O)CNS(=O)(=O)c2ccc(C)cc2)cc1 | inactive: 14.4% |
| CCCCOC(=O)Nc1nnc(/C=C/c2ccc(OC)cc2)s1 | inactive: -14% |
| Cc1ccc(NC(=O)COc2cccnc2[N+](=O)[O-])cc1S(=O)(=O)N1CCCCC1 | inactive: 6.52% |
| CC1=C(C(N)=O)C(c2ccc(Cl)c(Cl)c2)n2ncnc2N1 (stereo not drawn) | inactive: 3.75% |
| O=[N+]([O-])c1cc(S(=O)(=O)NCCN2CCOCC2)ccc1Sc1nnnn1-c1ccccc1 | inactive: 17% |
| CCCCOc1ccc(C(=O)NNC(=O)c2cnccn2)cc1OC | inactive: -5.56% |
| C=CCOc1ccccc1CN(CCc1ccccc1)C(=O)c1cccc(S(C)(=O)=O)c1 | inactive: 1.68% |

| Structure (SMILES) | growth rescue (activation) |
| --- | --- |
| CCOC(=O)c1ccc(NC2Nc3cc(C)nn3S2)cc1 (stereo not drawn) | inactive: 23.3% |
| CC(=O)Nc1ccc(S(=O)(=O)NCC2CCC(C(=O)NCc3ccccc3)CC2)cc1 (stereo not drawn) | inactive: -3.41% |
| C=CCNC(=O)c1ccccc1NC(=O)c1ccccc1N(C)S(C)(=O)=O | inactive: 11.4% |
| Cc1ccc(N(C)S(=O)(=O)c2cccc(C(=O)N(C)Cc3cnn(-c4ccccc4)c3)c2)cc1 | inactive: 41.1% |
| Cc1ccc2c(CN3CCN(Cc4ccccc4)CC3)cc(=O)oc2c1C | inactive: -10.2% |
| Cc1ccc(C(=O)Nc2cccc(-c3cn4ccccc4n3)c2)cc1 | inactive: 4.96% |
| CCn1c(SCC(=O)Nc2ccc(N3CCOCC3)cc2)nnc1-c1ccncc1 | inactive: 1.57% |
| Cc1cccc(C)c1NC(=O)CN1C(=O)N(C)Cc2ccccc21 | inactive: 1.52% |
| CCc1nc2c(OCCOc3ccc(F)cc3)cccn2c1N(C=O)Cc1ccccc1 | inactive: -15.2% |
| CC(=O)c1cccc(NC(=O)C2CCCN(S(=O)(=O)c3cccc4nonc34)C2)c1 (stereo not drawn) | inactive: 3.19% |
| CCN1CCCC1CN(Cc1cc2ccc(C)cc2[nH]c1=O)C(=S)Nc1ccccc1OC (stereo not drawn) | inactive: 5.95% |
| Cc1nnc(SCc2c(Cl)cccc2Cl)n(N)c1=O | inactive: 15.6% |
| COc1cccc(CN(C)Cc2c(O)ccc3ccccc23)c1 | inactive: -16.3% |
| Nc1nnc(Cc2ccccc2F)s1 | inactive: 15.3% |
| Cn1c(=O)c([N+](=O)[O-])c(NCc2ccccc2)c2ccccc21 | inactive: -35.4% |
| CCC1CCCCN1C(=S)NC(=O)c1cccs1 (stereo not drawn) | inactive: 2.77% |
| Cc1ccc(CN2CCC(C(=O)Nc3ccc(Oc4cccnc4)cc3)CC2)cc1 | inactive: 4.91% |
| COC(=O)Nc1nnc(-c2ccco2)s1 | inactive: 0.949% |
| O=C(Nc1cccc([N+](=O)[O-])c1)N1CCN(c2ccccc2)CC1 | inactive: 0.53% |
| CCOc1ccccc1NC(=O)CN1CCN(C(=O)C2CCCO2)CC1 (stereo not drawn) | inactive: 6.79% |
| CN1CCCN(Cc2nc(-c3cccc(C(F)(F)F)c3)no2)CC1 | inactive: -7.9% |
| CSc1nc2ncc(C#N)cn2n1 | inactive: -6.4% |
| COc1cccc(C(NC(C)=O)c2nc(-c3ccccc3OC)cs2)c1 (stereo not drawn) | inactive: 4.29% |
| C=CCNC(=O)c1c(C(F)(F)F)nn(C)c1Cl | inactive: -4.42% |
| O=C(CCc1ccccc1)NNC(=O)Cc1ccc(Cl)cc1 | inactive: 13.9% |
| CCCS(=O)(=O)NC(=O)C1(C)CCN(C(=O)c2cc(-c3cccs3)oc2C)C1 (stereo not drawn) | inactive: 7.66% |
